The source of these data is PubChem BioAssay AID1508642 (National Center for Advancing Translational Sciences (NCATS), 2021).

Structures are written as SMILES. Out of some 43,000 compounds screened, about 200 (0.47%) were called active. Inconclusive results (about 12%) are left out. The call rests on the fitted dose curve; in most records, active means well fitted cell-killing curve with a large enough effect; inconclusive means small, poorly fitted or top-dose-only effect, or effect the other way; inactive means flat fitted curve, though single readings scatter. Some of the results follow.
On the % scale 0 is the no-effect control and ±100 the full control effect.

The nature of this test: Cell viability qHTS assay in S16 Pmp22-F2sN cells. Further: nearly all actives have a fitted effect of over 65% in size. The note with it: S16 Pmp22-F2sN Schwann cells (luciferase reporters placed in the Pmp22 gene) viability, CellTiter-Glo, 24 h; series mostly up to 57.5 µM; activity change, negative = cytotoxicity: at the top concentration. The gist of the method: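 Luminescence from CellTiter-Glo, read by CCD camera after a 15 min room-temperature incubation, served as the viability signal. Reporter Schwann cells (S16 Pmp22-F2sN) had been treated with pin-transferred compounds for 24 h at 37C.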
Background: In qHTS, concentration-response curves come from the screen itself.
`COC(=O)c1cc2oc3ccccc3c2n1Cc1nc(-c2ccccc2C)oc1C`: the “activity change, negative = cytotoxicity” value was inactive: -1.9%.

For the compound `CCC(C)NC(=O)CCc1c(C)nc2nc(-c3cc(OC)cc(OC)c3)nn2c1C` (configuration not stated), the “activity change, negative = cytotoxicity” value was inactive: 3.6%.

On to `Cc1ccc(NC(=O)[C@@H](c2ccccc2)N2Cc3ccccc3C2=O)cc1`, for which the “activity change, negative = cytotoxicity” value was inactive: -2.21%.

Consider `Cc1ccc2[nH]c(CSc3nnc(NC(=O)c4ccc(Cl)cc4)s3)cc(=O)c2c1`, for which the “activity change, negative = cytotoxicity” value is inactive: 13.7%.

For `COc1ccc(OC)c(CCNc2nc3ccccc3c3nc(-c4cccnc4)nn23)c1`, the “activity change, negative = cytotoxicity” value is inactive: 2.25%.

In the case of `Brc1ccc(-n2nc(-c3ccccc3)c3cnc4cc5c(cc4c32)OCO5)cc1`, the “activity change, negative = cytotoxicity” value was inactive: 0.911%.

Regarding `Cc1c(C(=O)Nc2cccc(Cl)c2)oc2ccc(S(=O)(=O)N(C)C3CCCCC3)cc12`, the “activity change, negative = cytotoxicity” value was inactive: 1.07%.

As for `COc1cccc(NC(=O)Cn2c(=O)n(-c3ccc(C)cc3)c(=O)c3ccc(C(=O)NCc4ccco4)cc32)c1`, the “activity change, negative = cytotoxicity” value was inactive: -11.4%.

In the case of `Cc1nc2ncnn2c(C)c1CCC(=O)NCc1ccccc1Cl`, the “activity change, negative = cytotoxicity” value was inactive: 3.56%.

Take `CCOc1ccccc1N(CC(=O)N1CCc2ccccc2C1)S(=O)(=O)c1ccccc1`: the “activity change, negative = cytotoxicity” value is inactive: -12.3%.

With `CCc1ccc(-c2nc(CS(=O)CC(=O)NCCc3ccc(Cl)cc3)c(C)o2)cc1` (configuration not stated), the “activity change, negative = cytotoxicity” value is inactive: 5.88%.

As for `O=C1CCSC2(C(=O)N(Cc3ccc(F)cc3)c3ccccc32)N1c1ccc(F)c(F)c1` (configuration not stated), the “activity change, negative = cytotoxicity” value was inactive: 10.8%.

`CCNC(=O)CC1C(=O)N(c2cccc(OC)c2)C(=O)N1Cc1ccc(OC)c(OC)c1` (configuration not stated): the “activity change, negative = cytotoxicity” value is inactive: 0.748%.

`CCOc1ccc2oc(=O)cc(CN3CCN(C(=O)c4ccc(F)cc4)CC3)c2c1`: the “activity change, negative = cytotoxicity” value was inactive: -9.27%.

On to `COCCn1c(=N)c(C(=O)NC(C)c2ccccc2)cc2c(=O)n3cc(C)ccc3nc21` (configuration not stated), for which the “activity change, negative = cytotoxicity” value was inactive: 1.7%.

`CCOCc1ccccc1Nc1ncnc2onc(-c3ccc(Cl)cc3)c12`: the “activity change, negative = cytotoxicity” value was inactive: 25.4%.

As to `CCc1cccc(NC(=O)C(c2ccccc2)N2Cc3ccccc3C2=O)c1` (configuration not stated), the “activity change, negative = cytotoxicity” value is inactive: -0.408%.

Take `CCC(Sc1nncn2c1cc1oc(C)cc12)C(=O)Nc1ccc(F)cc1` (configuration not stated): the “activity change, negative = cytotoxicity” value was inactive: 0.205%.

As for `CCOc1ccccc1NC(=O)CCn1nc(C)c(S(=O)(=O)N2CCCCC2)c1C`, the “activity change, negative = cytotoxicity” value is inactive: 3.91%.

For `COc1ccc(C2C=C(c3ccccc3)Nc3nc(NC(=O)/C=C/c4ccccc4)nn32)cc1` (configuration not stated), the “activity change, negative = cytotoxicity” value is inactive: -1.2%.

With `O=C(NCCCc1ccccc1)C1CCN(C(=O)N2CCOc3ccc(Cl)cc32)CC1`, the “activity change, negative = cytotoxicity” value is inactive: -17.5%.

Regarding `O=C(Cn1ncc2c3ccccc3n(Cc3cccc(Cl)c3)c2c1=O)NC1CCCCCC1`, the “activity change, negative = cytotoxicity” value was inactive: 2.51%.

As to `CCc1ccc(NC(=O)CSC2=Nc3ccccc3C3=NC(CC(=O)NCc4ccccc4)C(=O)N23)cc1` (configuration not stated), the “activity change, negative = cytotoxicity” value is inactive: 2.87%.

With `CCN1CCSc2ccc(C(=O)NCc3ccc(OC)cc3)cc21`, the “activity change, negative = cytotoxicity” value was inactive: 1.19%.

For `COC(=O)CCN(c1ccccc1)S(=O)(=O)c1cc(-c2cc(C)no2)ccc1OC`, the “activity change, negative = cytotoxicity” value is inactive: 2.5%.

On to `CCN(CC)S(=O)(=O)c1ccc2c(c1)c(=O)c(C(=O)N1CCN(c3ccc(F)cc3)CC1)cn2C`, for which the “activity change, negative = cytotoxicity” value was inactive: 1.87%.

As to `Fc1ccc(-c2noc3ncnc(NC4CCCCC4)c23)cc1`, the “activity change, negative = cytotoxicity” value is inactive: -7.19%.

Take `Cc1c2cnn(CC(=O)NCCc3ccccc3)c(=O)c2c(C)n1Cc1ccccc1`: the “activity change, negative = cytotoxicity” value was inactive: 0.822%.

Take `COc1cc(NC(=O)CSc2ncc(S(=O)(=O)c3ccc(Br)cc3)c(=O)[nH]2)cc(OC)c1`: the “activity change, negative = cytotoxicity” value is inactive: -7.44%.

For the compound `Cc1cccc(NC(=O)C(=O)NCC(c2ccc3c(c2)OCO3)N2CCN(C)CC2)c1C` (configuration not stated), the “activity change, negative = cytotoxicity” value is inactive: -11.7%.

In the case of `COc1ccc(OC)c(NC(=O)c2cccn2-c2nnc(N3CCCCC3)s2)c1`, the “activity change, negative = cytotoxicity” value was inactive: 3.11%.

Consider `COc1ccc(CNC(=O)c2cc3c(=O)oc4ccc(C)cc4c3s2)c(OC)c1`, for which the “activity change, negative = cytotoxicity” value is inactive: 7.64%.

Regarding `COc1ccc(CNC(=O)c2ccc(NC(=O)N3CCCCc4ccccc43)cc2)cc1`, the “activity change, negative = cytotoxicity” value is inactive: 6.62%.

With `CCN(CC)S(=O)(=O)c1ccc2oc(C(=O)N(C)Cc3ccccc3)c(C)c2c1`, the “activity change, negative = cytotoxicity” value was inactive: 3.7%.

For `CCCCOc1cccc(C(=O)N(Cc2sccc2C)C2CCS(=O)(=O)C2)c1` (configuration not stated), the “activity change, negative = cytotoxicity” value was inactive: -13.9%.

As for `Cc1cc(Nc2cccc(Cl)c2)nc2ccc(NC(=O)Cc3cccc(C(F)(F)F)c3)cc12`, the “activity change, negative = cytotoxicity” value is inactive: -27.4%.

With `COc1ccc(Cn2c(=O)c3oc4ccccc4c3n(Cc3ccc(F)cc3)c2=O)cc1`, the “activity change, negative = cytotoxicity” value was inactive: -0.491%.

Regarding `Cc1cccc(N2CCN(C(=O)CCCCn3c(=O)[nH]c4ccsc4c3=O)CC2)c1C`, the “activity change, negative = cytotoxicity” value was inactive: -24.5%.

Take `CCN(CC)S(=O)(=O)c1ccc2c(c1)N(CC(=O)N1CCN(c3ccc(F)cc3)CC1)C(=O)CO2`: the “activity change, negative = cytotoxicity” value is inactive: -1.85%.

Consider `Cc1ccc(C)c(-c2[nH]c3c(c2-c2c(-n4cccc4)n(C)c(=O)[nH]c2=O)c(=O)[nH]c(=O)n3C)c1`, for which the “activity change, negative = cytotoxicity” value was inactive: 3.67%.

As for `Cc1ccc(-c2nc(CCNC(=O)C(=O)Nc3ccc(C)cc3C)cs2)cc1`, the “activity change, negative = cytotoxicity” value was inactive: -10.7%.

For the compound `CCOc1ccc(CCNC(=O)Cn2nc(-c3ccc(C)cc3)ccc2=O)cc1OCC`, the “activity change, negative = cytotoxicity” value is inactive: 3.72%.

With `COc1ccc(CNC(=O)c2ccc(CS(=O)(=O)c3ccccc3OC)o2)cc1`, the “activity change, negative = cytotoxicity” value is inactive: -0.187%.

In the case of `O=C(CNS(=O)(=O)c1cccs1)N1CCN(c2cccc(C(F)(F)F)c2)CC1`, the “activity change, negative = cytotoxicity” value was inactive: -9.4%.

Regarding `COc1cc(CN2CCN(S(=O)(=O)c3ccccc3)CC2)cc(OC)c1O`, the “activity change, negative = cytotoxicity” value was inactive: 8.36%.

For `CCc1ccccc1NC(=O)C1=C(C)C(=O)OC12CCCCCC2`, the “activity change, negative = cytotoxicity” value was inactive: -2.68%.

As to `COC(=O)c1ccc(CSc2nc3c([nH]c4ccccc43)c(=O)n2-c2ccc(Cl)cc2)o1`, the “activity change, negative = cytotoxicity” value is inactive: 3.02%.
